In the supplement of paper PMC3334620:
Whole data set: some 33,000 sequences, median “E-score (-0.5 to 0.5)” near -0.054, cut for the highest 2% near 0.39. The list shows a part of the results.

target: Ylr278c (UniProt Q05854); assay: PBM E-score (8-mer binding enrichment) (E-score (-0.5 to 0.5)); higher = stronger / more preferred TF binding; most listed sequences are background and not binding sites; details: protein concentration: 200 nM; construct: GST-DNA-binding domain
Outline: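 The E-score, a modified Wilcoxon-Mann-Whitney statistic, was computed by the Universal PBM Analysis Suite for every ungapped eight-base word pooled with its reverse complement. Scans behind it were normalised with masliner after bound GST-tagged yeast transcription factors were detected with fluorescent anti-GST. The proteins, at about 100-200 nM, had been applied to universal all-10-mer Agilent arrays made double-stranded by primer extension.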

Row | Sequence | PBM E-score
1 | ACACAGCC | -0.0638
2 | GGTTCTTA | -0.0602
3 | AGATCACT | 0.0112
4 | GGCCGGGA | 0.325
5 | CAGATAGC | -0.0897
6 | TACGTCTA | -0.193
7 | AGGTCGTC | -0.0309
8 | AATCACAT | -0.0102
9 | AAGTACTT | -0.025
10 | CGGAAGGA | 0.301
11 | ACTGATAC | -0.128
12 | ATTGACAC | -0.0918
13 | AAATCTGC | -0.19
14 | GCTCGCCC | -0.0753
15 | ATGGTTCA | -0.0627
16 | CTAGCATA | -0.0627
17 | GATAACTA | -0.0391
18 | AACCCGTA | -0.0038
19 | CTGAGCGC | -0.145
20 | AAGGAGTC | -0.127
21 | CTTGATCC | -0.0306
22 | AAATGGTA | 0.0343
23 | AAAATGCC | 0.12
24 | CCTTAGAA | -0.197
25 | GTTCACAA | -0.0585

Row | Sequence | PBM E-score
26 | GCTGAGAC | -0.12
27 | CGAGCTAA | 0.0875
28 | GCTAATGA | -0.196
29 | AGGCCTAT | -0.201
30 | GATGCAAA | -0.137
31 | GATGCCGA | 0.291
32 | GGCGTGAC | 0.00725
33 | GCTGGAGA | -0.271
34 | AACATCCT | -0.13
35 | AGACGGCT | 0.106
36 | GCCGGGTA | 0.178
37 | ACACTTGC | -0.148
38 | GTATAACA | -0.169
39 | CGTCCGGC | 0.407
40 | AAACCGGT | 0.204
41 | CCGGTTCA | 0.245
42 | GCGGTCCA | 0.0865
43 | GAGGTCAA | -0.0898
44 | GAAGAGGC | -0.0592
45 | ATCCAACC | -0.142
46 | AGCGTAGG | -0.118
47 | GACTGAGC | -0.207
48 | CATCATAC | -0.0582
49 | ATTATCGA | -0.173
50 | GGGGTCGA | 0.121

Row | Sequence | PBM E-score
51 | ATATCGAG | -0.0239
52 | ACGAAGCA | -0.185
53 | AATGCTCT | -0.0976
54 | CCCTCCTA | -0.107
55 | GCAAATAC | -0.122
56 | GATGGAAC | -0.122
57 | GCCTAGTA | -0.0282
58 | AGAGTTAC | -0.362
59 | CATTATAA | 0.0314
60 | AATGTTTG | -0.00463
61 | AAGCATAG | -0.21
62 | ACAGTTGG | -0.18
63 | CAATATTG | -0.249
64 | AGATTCAA | 0.0154
65 | AATTGTCA | -0.248
66 | CGGGGCCC | 0.283
67 | TAGACAGA | -0.152
68 | ACCGATTG | 0.0828
69 | AACATGCT | -0.0663
70 | GTAACGAA | -0.139
71 | CCCATACG | -0.0748
72 | CGTATGCA | -0.00834
73 | CAGCCAGA | -0.0878
74 | GAAAGCTC | -0.214
75 | AAAAGAGT | -0.172

Row | Sequence | PBM E-score
76 | AGAGAGGC | -0.233
77 | GAGGGTCA | -0.0944
78 | GTACATGA | -0.183
79 | CTGGCATA | -0.0157
80 | TCTAGTCA | -0.147
81 | CACCACGC | -0.189
82 | CAACGAGG | -0.126
83 | CATAAGCC | 0.0205
84 | CCGCGGTA | 0.355
85 | CAACGAGA | 0.0284
86 | GCTCTTAC | 0.0329
87 | TGCTCAAA | -0.118
88 | AAGCGTGG | -0.103
89 | AGAACGCT | -0.0442
90 | GACACGGA | 0.341
91 | CCAATACG | -0.0635
92 | AAGAAATT | 0.0981
93 | GACCTACA | -0.0188
94 | TTCCAGAA | -0.145
95 | CTTACCCA | -0.181
96 | CTGCAATA | -0.0169
97 | GAGATACA | 0.118
98 | AGGATCAG | -0.23
99 | ACTTCAGC | -0.181
100 | GGATTACC | 0.292

Row | Sequence | PBM E-score
101 | TGTGACAA | -0.209
102 | GATAGGAA | -0.0409
103 | ACAGCAAC | 0.0377
104 | GTTTCCTA | -0.161
105 | ATCCTAAG | -0.147
106 | AAAACGGA | 0.211
107 | CGTATCAC | -0.112
108 | CATTGTAC | -0.109
109 | GATACAAA | 0.076
110 | AAAGACGT | 0.00612
111 | CATGGTAG | -0.215
112 | CAGCGGGG | 0.204
113 | CTTGCAAG | -0.0323
114 | ATAGCGTA | -0.0599
115 | ATATGTTA | -0.146
116 | TACCCTGA | -0.243
117 | CTGACGAC | -0.228
118 | ACAGCATC | -0.123
119 | AATGAGGA | -0.182
120 | ATTAATTG | 0.0195
121 | ACGTTCCC | -0.125
122 | CCAATAGC | -0.0656
123 | CTGGACAG | -0.149
124 | CACACCTC | 0.0903
125 | ATGGGAAG | -0.216

Row | Sequence | PBM E-score
126 | AACTTGTG | 0.0109
127 | AGAATCTA | -0.14
128 | CGTCCAAA | 0.14
129 | AAACGATA | -0.158
130 | ATTTTAGG | -0.0416
131 | CGGAGGAC | 0.423
132 | AACGGGTA | -0.0232
133 | AAAAGTAG | -0.211
134 | CACCGACA | 0.248
135 | AGAGTGAG | -0.117
136 | ACTTGTCA | 0.00844
137 | AGCAAGAC | -0.0712
138 | ACACGCCG | 0.305
139 | GTGCCCGA | 0.0619
140 | AAGTACTG | -0.235
141 | AAACACAA | -0.164
142 | AGACGCGA | -0.0461
143 | CTTGCGTA | -0.183
144 | ACATCCCG | 0.315
145 | CAGGTGAC | -0.184
146 | CGGTCCTC | 0.0743
147 | CGAAACTA | 0.0933
148 | GGTCATGA | -0.108
149 | AGTGCAAT | -0.142
150 | CCTCGCGC | -0.082

Row | Sequence | PBM E-score
151 | ATACCTGA | -0.132
152 | CTCATAAA | -0.144
153 | CCTAGACA | -0.107
154 | CGATTTGC | 0.165
155 | ATCTAGAG | -0.214
156 | ATCTATGA | -0.234
157 | AGGCCCCG | 0.133
158 | AGAGCTCA | -0.177
159 | ACCTCATA | -0.101
160 | ATGTGTAG | 0.0145
161 | CTCGTGTA | -0.0712
162 | GCGATCGC | 0.223
163 | GGAGGTAA | 0.145
164 | GGCTTGAC | -0.0657
165 | ACAATGAA | -0.165
166 | CGCTGTGA | -0.181
167 | AGCCGGTA | 0.352
168 | CCCCCCAG | -0.315
169 | GGGACAGA | -0.0933
170 | GATTACAA | 0.145
171 | ATTGGTCG | 0.0468
172 | CGCGACGC | 0.102
